# Laboratory results published in publication PMC4336329 (PLoS ONE, 2015).
# Screen size: about 310,000 compounds; about 14,000 (4.5%) showed an effect of 50% or more. The effect is printed as a negative number. The list shows a part of the results.
# Target: human ether-à-go-go-related gene (hERG) potassium channel (human, UniProt Q12809)
# Assay: primary screen, population patch clamp on CHO cells stably expressing hERG
# 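Further: peak tail current of the secondary pulse compared with the same well before compound.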
# Chain of human ether-à-go-go-related gene (hERG) potassium channel (Q12809 whole entry, looked up): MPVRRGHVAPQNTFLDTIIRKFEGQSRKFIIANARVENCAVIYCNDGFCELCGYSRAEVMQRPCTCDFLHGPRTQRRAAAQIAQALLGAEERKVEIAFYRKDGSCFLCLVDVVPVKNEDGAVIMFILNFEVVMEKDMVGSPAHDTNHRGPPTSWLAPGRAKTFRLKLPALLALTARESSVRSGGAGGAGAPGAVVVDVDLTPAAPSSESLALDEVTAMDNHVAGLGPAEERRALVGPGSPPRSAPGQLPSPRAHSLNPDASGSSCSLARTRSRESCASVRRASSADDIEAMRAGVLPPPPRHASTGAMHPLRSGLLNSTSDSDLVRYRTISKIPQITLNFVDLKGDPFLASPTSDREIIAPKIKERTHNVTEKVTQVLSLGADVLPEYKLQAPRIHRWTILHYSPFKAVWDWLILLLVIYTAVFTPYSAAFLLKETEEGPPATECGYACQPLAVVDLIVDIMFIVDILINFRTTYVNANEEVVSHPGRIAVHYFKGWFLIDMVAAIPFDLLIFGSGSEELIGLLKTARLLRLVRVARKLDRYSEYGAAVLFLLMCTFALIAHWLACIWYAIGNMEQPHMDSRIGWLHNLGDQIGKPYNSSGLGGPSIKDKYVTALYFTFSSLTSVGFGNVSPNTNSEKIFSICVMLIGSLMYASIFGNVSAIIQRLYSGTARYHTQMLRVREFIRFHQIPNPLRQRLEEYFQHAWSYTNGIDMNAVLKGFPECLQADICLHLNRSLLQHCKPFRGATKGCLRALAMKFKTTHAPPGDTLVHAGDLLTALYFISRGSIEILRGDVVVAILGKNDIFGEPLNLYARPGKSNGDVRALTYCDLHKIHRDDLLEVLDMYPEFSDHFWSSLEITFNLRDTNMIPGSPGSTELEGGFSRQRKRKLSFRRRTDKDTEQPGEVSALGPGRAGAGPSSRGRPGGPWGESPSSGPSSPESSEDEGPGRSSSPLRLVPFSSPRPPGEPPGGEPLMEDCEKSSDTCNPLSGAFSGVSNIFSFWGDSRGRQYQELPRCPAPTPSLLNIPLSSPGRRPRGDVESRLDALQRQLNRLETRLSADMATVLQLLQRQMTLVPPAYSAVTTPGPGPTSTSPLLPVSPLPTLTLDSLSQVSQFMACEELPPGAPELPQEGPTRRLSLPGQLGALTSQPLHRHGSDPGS
row,Structure (SMILES),"hERG current change (%, negative = inhibition) at 10uM"
1,Clc1c(Cl)c(Cl)c2n[nH]nc2c1Cl,26.5%
2,CC(C)CCc1c(O)nc(SCC(=O)N2CCCCCC2)[nH]c1=O,6.23%
3,CCC(OC(=O)c1ccco1)C(=O)NCc1ccc(OC)cc1 (centres unmarked),-8.67%
4,CCOC(=O)CNC(=O)c1nn(-c2cccc(OC)c2)c(=O)c2ccccc12,-22.9%
5,C=CCc1cccc(/C=N/NC(=O)C(=O)Nc2ccc(C)cc2)c1O,30.5%
6,CC(=O)c1ccc(NC2OC(C)C(O)C(O)C2O)cc1 (centres unmarked),14.5%
7,Cc1ccc(N(C(=O)CNC(=O)c2ccco2)C(C(=O)NCC2CCCO2)c2ccccc2)cc1C (centres unmarked),-7.14%
8,Cc1ccccc1OCCN1C(=O)c2ccccc2C1=O,0.172%
9,CCOC(=O)N1CCC(NC(=O)C2CCN(S(=O)(=O)c3cnc[nH]3)CC2)CC1,13.6%
10,COC(=O)C(NC(=O)c1ccco1)(Nc1nc(C2CC2)cs1)C(F)(F)F (centres unmarked),11.7%
11,CC1(C)Cc2cccc(OCC(=O)N3CCN(c4cccc(Cl)c4)CC3)c2O1,-4.1%
12,Cc1nc(NC(=O)CN2CCCCC2)sc1C(=O)N(C)C,1.37%
13,O=C(NN1c2ccccc2CCc2ccccc21)c1ccccc1Br,12.9%
14,Cc1cc(C)c(NC(=O)C2CCCN2CCC(C)C)c(C)c1 (centres unmarked),-11.5%
15,Fc1ccc(/C=N/Nc2nc(-c3cccnc3)nc3ccccc23)cc1,-25.1%
16,CCOC(=O)NNC(=O)c1ccc(Cl)cc1,-1.59%
17,COC(=O)c1sccc1-n1cccc1C(=O)N1CCOCC1,-44.5%
18,COC(=O)c1c(N)c(C#N)c(C)n1-c1ccccc1,7.73%
19,Cc1ccc(NC(=O)C2CCN(S(=O)(=O)c3ccc4c(c3)CC(C)N4C(=O)C3CCC3)CC2)nc1 (centres unmarked),-5.5%
20,CCOC(=O)c1sc(NC(=O)C2CCC2)cc1C,-8.33%
21,Cc1ccc2nc(SCc3ccc([N+](=O)[O-])cc3)[nH]c2c1,-65.1%
22,CCCCC(=O)Nc1ccc(NC(=S)NC(=O)CC)cc1OC,-0.84%
23,CCOC(=O)CC(=O)CSc1nc(-c2ccccc2)cc(-c2ccccc2)c1C#N,10.1%
24,Cc1cccc(N2CN=c3s/c(=C\c4ccccn4)c(=O)n3C2)c1,-1.21%
25,Cn1nnc2cc(C(=O)NCCC3=CCCCC3)ccc21,-6.14%
26,CCn1c(C)cc(/C=C2\SC(=O)N(CC(=O)Nc3ccc(C)c(C)c3)C2=O)c1C,-2.65%
